From paper PMC4336329 (PLoS ONE, 2015)
The campaign covered roughly 310,000 compounds. About 2,200 (0.71%) showed an effect of 50% or more. Effects have a minus sign here. This is one part of the list. Where a SMILES comes first, the peptide text is derived from it. [ ]: non-standard residue; d: D form. The star is where a group is joined. Tic = O=C(O)[C@@H]1Cc2ccccc2CN1; NHPr = CCCN*

These compounds were tested against human ether-à-go-go-related gene (hERG) potassium channel (human, UniProt Q12809) (assay: primary screen, population patch clamp on CHO cells stably expressing hERG).
human ether-à-go-go-related gene (hERG) potassium channel, sequence (Q12809 whole entry, looked up): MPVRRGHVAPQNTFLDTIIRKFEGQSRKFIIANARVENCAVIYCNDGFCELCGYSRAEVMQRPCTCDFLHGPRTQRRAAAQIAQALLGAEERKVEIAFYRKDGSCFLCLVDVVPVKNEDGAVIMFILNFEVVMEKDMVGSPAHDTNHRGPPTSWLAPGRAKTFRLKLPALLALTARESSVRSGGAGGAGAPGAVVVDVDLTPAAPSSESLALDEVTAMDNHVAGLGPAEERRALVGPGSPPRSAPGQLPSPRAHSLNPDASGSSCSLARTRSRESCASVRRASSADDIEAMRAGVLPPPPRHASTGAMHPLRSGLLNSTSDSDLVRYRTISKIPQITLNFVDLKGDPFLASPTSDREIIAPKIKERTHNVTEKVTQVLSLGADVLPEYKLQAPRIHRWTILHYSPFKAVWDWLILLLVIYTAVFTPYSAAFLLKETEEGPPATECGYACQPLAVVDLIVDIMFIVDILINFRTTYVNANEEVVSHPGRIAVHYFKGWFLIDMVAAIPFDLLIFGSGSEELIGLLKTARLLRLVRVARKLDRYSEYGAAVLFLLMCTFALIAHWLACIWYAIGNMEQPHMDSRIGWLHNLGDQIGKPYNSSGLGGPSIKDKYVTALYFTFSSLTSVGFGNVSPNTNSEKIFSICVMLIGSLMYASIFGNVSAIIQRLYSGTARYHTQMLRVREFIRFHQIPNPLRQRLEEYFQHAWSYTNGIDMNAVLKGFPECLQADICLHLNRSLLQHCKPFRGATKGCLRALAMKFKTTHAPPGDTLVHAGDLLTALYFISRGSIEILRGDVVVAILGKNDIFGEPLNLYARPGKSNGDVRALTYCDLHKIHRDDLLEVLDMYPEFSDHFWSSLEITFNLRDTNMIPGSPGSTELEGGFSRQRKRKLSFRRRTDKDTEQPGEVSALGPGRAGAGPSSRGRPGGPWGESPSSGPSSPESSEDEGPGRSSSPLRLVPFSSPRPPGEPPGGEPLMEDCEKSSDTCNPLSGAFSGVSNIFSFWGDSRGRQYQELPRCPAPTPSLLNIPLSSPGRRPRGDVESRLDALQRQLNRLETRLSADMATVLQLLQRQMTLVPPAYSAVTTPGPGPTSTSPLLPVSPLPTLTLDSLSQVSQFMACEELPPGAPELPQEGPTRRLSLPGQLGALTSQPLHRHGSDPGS

Structure (SMILES)	hERG current change (%, negative = inhibition) at 1uM [%]
COc1ccc(OC)c(CN2CCC(N3CCC(C(=O)NC4CC4)CC3)CC2)c1	4.7
Cc1cc(C(=O)OCC(=O)N2CCCCCC2)ccc1[N+](=O)[O-]	5.49
O=C(Nc1scc(-c2ccccc2)c1C(=O)O)c1ccccc1F	16.8
C/C(CC(=O)Nc1ccc2ccccc2c1)=N\NC(=O)c1ccc(O)c(O)c1	2.59
COCCOC(=O)C1=C(C)N(Cc2ccccc2)C(=O)NC1c1cccc(OC)c1OC (stereo not drawn)	-3.34
Cn1cccc1/C=N/NC(=O)c1ccco1	12.2
Cc1ccnc2nc(C(=O)OCCOc3cccc(Br)c3)nn12	0.365
CC(C(=O)NCC(=O)Nc1ccc(F)c(F)c1F)N1CCN(Cc2ccc(C#N)cc2)CC1 (stereo not drawn)	-11.8
CNC(=S)Nc1cc(C(F)(F)F)ccc1Cl	-4.86
COc1ccccc1/C=C/C=C1N=C(/C=C/c2ccc(Cl)cc2)OC/1=O	-8
Cc1cccc(Cn2c(=O)n(-c3ccc(CC(=O)NCc4ccco4)cc3)c(=O)c3sccc32)c1	3.63
C=CCN=C1NN=C(c2cc(C)n(CCOC)c2C)CS1.Cl	-0.114
Cc1ccc(/C=N/n2nnnc2N)cc1[N+](=O)[O-]	10.1
O=C(Nc1ccc(-c2nc3ccccc3s2)cc1)C1=COCCO1	20.3
Br.Clc1ccc(C2=CSC3=NCCN23)cc1Cl	-19.8
COc1cccc(CNC(=O)Cn2cccc2)c1	-0.7
COc1ccc(NC(=O)C(C)NS(=O)(=O)c2ccccc2)cc1Cl (stereo not drawn)	-4.57
CCC(=O)N1CCn2c1nc1ccccc12	7.73
COc1cccc(/C=N/NC(=O)Cn2ccnc2C)c1	1.04

Structure (SMILES)	hERG current change (%, negative = inhibition) at 1uM [%]
CN(C)c1cccc(C(=O)Nc2cccc(F)c2)c1	11.2
COc1ccc(NC2c3ncccc3C(=O)N2Cc2ccccc2)c(OC)c1 (stereo not drawn)	-0.125
Cc1cc(NC(=O)COC(=O)[C@H](Cc2c[nH]c3ccccc23)NC(=O)c2ccc(F)cc2)no1	3.7
COc1ccc(C2SCC(=O)Nc3c2c(=O)[nH]n3C2CCCCCC2)cc1 (stereo not drawn)	1.43
CCCNC(=O)[C@@H]1CCCN1C(=O)[C@@H]1Cc2ccccc2CN1.Cl (H-[Tic]-Pro-NHPr)	15.9
CCC(=O)Nc1nc2ccc3sc(C)nc3c2s1	6.81
CCCCCC(=O)Nc1cc(S(=O)(=O)N2CCCCC2)ccc1N1CCOCC1	0.388
Cc1cc(Br)ccc1NC(=O)CN1CCN(c2ccccn2)CC1	-49.6
CCCn1c(=O)n(C)c(=O)c2c(SC(C)C(=O)NCC3CCCO3)nc(CC(C)C)nc21 (stereo not drawn)	21.2
CCc1cc2c(SCc3nc4sc(C(C)=O)c(C)c4c(=O)[nH]3)ncnc2s1	12.1
Cc1ccc(/C=C2\OC(=O)c3ccccc32)cc1	18.9
CCOC(=O)C(C)Sc1nnc(-c2ccccc2O)n1-c1ccc(C)cc1 (stereo not drawn)	-2.26
CCC(C)NC(=O)CCn1c(=O)c2cccn2c2ccc(F)cc21 (stereo not drawn)	14.1
COc1cnn(-c2ccccc2)c(=O)c1SCc1ccc(Cl)cc1Cl	-6.86
COCCn1c(Cc2ccccc2)nnc1SCC(=O)N1CCCC1=O	10.8
C/C(=N/NC(=O)CNc1ccc(C)cc1)c1ccc(Cl)cc1	15
Cc1ccc(C)c(S(=O)(=O)N2CCN(C(=O)CCc3c[nH]c4ccccc34)CC2)c1	-6.4
COc1ccc(/C=N/O)cc1COc1ccc(NC(C)=O)cc1	-0.0462
CCOc1ccccc1C(=O)NCC(=O)OCc1c(C)noc1C	8.49

Structure (SMILES)	hERG current change (%, negative = inhibition) at 1uM [%]
CCOC(=O)c1ccccc1NC(=O)COC	7.66
CN(CCc1ccccc1)C1CCCN(S(=O)(=O)N(C)C)C1 (stereo not drawn)	11.6
Cc1nc2ccc(S(=O)(=O)c3ccc4nc(C)[nH]c4c3)cc2[nH]1	15.4
COC(=O)[C@@]12CCCCN1[C@H](c1ccc(SC3CCCCC3)cc1)[C@@H]1C(=O)N(C)C(=O)[C@@H]12.O=C(O)C(F)(F)F	8.22
COc1cc(/C=C2/C(C)=C(C#N)c3nc(N)c(C#N)c(C)c32)ccc1OCC(=O)O	8.94
O=C(CSc1nnc(Nc2ccccc2)s1)Nc1cccc(S(=O)(=O)N2CCCCC2)c1	10.3
C=CC(C)(C)O[C@@H]1O[C@H](CO)[C@@H](O)[C@H](O)[C@H]1O	17.2
Cc1nn(-c2ccc([N+](=O)[O-])cc2)c2c1C(c1cccc(Br)c1)N1C(=N2)C(=O)Nc2ccccc21 (stereo not drawn)	7.48
O=C(Cc1ccccc1)NCC(=O)OCC(=O)c1cccs1	-1.37
Br.COc1c2c(cc3c1OCO3)CCN(C)C2	7.16
CC(O)/C=C/C1OC(=O)CC1Nc1ccc(C=O)cc1 (stereo not drawn)	4.57
OC1C2CN3CCN(C2)CC1(Cc1ccccc1)C3 (stereo not drawn)	4.69
CN1CCN(NS(=O)(=O)c2ccc(Cl)s2)CC1	14.7
O=C(NCc1ccco1)C(c1ccccc1)N(C(=O)Cc1cccs1)c1ccccc1F (stereo not drawn)	7.85
O=C(COC(=O)C1CC2CCCC(C1)C2=O)NNC(=O)c1ccccc1F (stereo not drawn)	14.8
CC(Cc1cccnc1)NC(=O)c1cc(COc2ccc(F)cc2F)on1 (stereo not drawn)	7.52
O=C(Cn1cc([N+](=O)[O-])cn1)NCc1cc2ccccc2[nH]1	-2.9
Cl.O=C(CC(Nc1ccc(F)cc1)c1ccccc1)c1ccccc1 (stereo not drawn)	5.51
O=C(Cn1cc([N+](=O)[O-])cn1)NCC1CCCO1 (stereo not drawn)	15.1
